According to the supplement of paper PMC8728848:
Some of the results follow.

Columns and labels:
Assay in all cases: glycan array binding signal (z-score within array); higher = stronger binding
Settings in all cases: glycan notation: IUPAC condensed, linker removed
Gal(b1-4)Glc = target: Gal(b1-4)Glc
Outline: (§1)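 Negative Z-scores can be read as non-binding. The Z-score is calculated within each array and then averaged across arrays of one protein sequence at different concentrations or buffers and across linkers. Arrays, 3228 in all, were curated from the Consortium for Functional Glycomics database and kept only where the protein sequence was available.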

Gal(b1-4)Glc6S = target: Gal(b1-4)Glc6S
Outline: as §1

Gal(b1-4)GlcNAc = target: Gal(b1-4)GlcNAc
Outline: as §1

[1] = target: Gal(b1-4)GlcNAc(a1-6)Gal(b1-4)GlcNAc
Outline: as §1

Gal(b1-4)GlcNAc(b1-2)Man = target: Gal(b1-4)GlcNAc(b1-2)Man
Outline: as §1

[2] = target: Gal(b1-4)GlcNAc(b1-2)Man(a1-3)Man(b1-4)GlcNAc(b1-4)GlcNAc
Outline: as §1

[3] = target: Gal(b1-4)GlcNAc(b1-2)Man(a1-3)[Gal(b1-4)GlcNAc(b1-2)Man(a1-6)]Man(b1-4)GlcNAc(b1-4)GlcNAc
Outline: as §1

[4] = target: Gal(b1-4)GlcNAc(b1-2)Man(a1-3)[Gal(b1-4)GlcNAc(b1-2)Man(a1-6)]Man(b1-4)GlcNAc(b1-4)[Fuc(a1-6)]GlcNAc
Outline: as §1

[5] = target: Gal(b1-4)GlcNAc(b1-2)Man(a1-3)[Gal(b1-4)GlcNAc(b1-2)Man(a1-6)][Gal(b1-4)GlcNAc(b1-4)]Man(b1-4)GlcNAc(b1-4)[Fuc(a1-6)]GlcNAc
Outline: as §1

[6] = target: Gal(b1-4)GlcNAc(b1-2)Man(a1-3)[Gal(b1-4)GlcNAc(b1-2)Man(a1-6)][GlcNAc(b1-4)]Man(b1-4)GlcNAc(b1-4)[Fuc(a1-6)]GlcNAc
Outline: as §1

[7] = target: Gal(b1-4)GlcNAc(b1-2)Man(a1-3)[GlcNAc(b1-2)Man(a1-6)]Man(b1-4)GlcNAc(b1-4)GlcNAc
Outline: as §1

[8] = target: Gal(b1-4)GlcNAc(b1-2)Man(a1-3)[GlcNAc(b1-4)][Gal(b1-4)GlcNAc(b1-2)Man(a1-6)]Man(b1-4)GlcNAc(b1-4)GlcNAc
Outline: as §1

[9] = target: Gal(b1-4)GlcNAc(b1-2)Man(a1-3)[Man(a1-6)]Man(b1-4)GlcNAc(b1-4)GlcNAc
Outline: as §1

[10] = target: Gal(b1-4)GlcNAc(b1-2)Man(a1-6)Man(b1-4)GlcNAc(b1-4)GlcNAc
Outline: as §1

[11] = target: Gal(b1-4)GlcNAc(b1-2)Man(a1-6)[GlcNAc(b1-2)Man(a1-3)]Man(b1-4)GlcNAc(b1-4)GlcNAc
Outline: as §1

[12] = target: Gal(b1-4)GlcNAc(b1-2)Man(a1-6)[Man(a1-3)]Man(b1-4)GlcNAc(b1-4)GlcNAc
Outline: as §1

[13] = target: Gal(b1-4)GlcNAc(b1-2)[Gal(b1-4)GlcNAc(b1-4)]Man(a1-3)[Gal(b1-4)GlcNAc(b1-2)Man(a1-6)]Man(b1-4)GlcNAc(b1-4)GlcNAc
Outline: as §1

[14] = target: Gal(b1-4)GlcNAc(b1-2)[Gal(b1-4)GlcNAc(b1-4)]Man(a1-3)[Gal(b1-4)GlcNAc(b1-2)[Gal(b1-4)GlcNAc(b1-6)]Man(a1-6)]Man(b1-4)GlcNAc(b1-4)GlcNAc
Outline: as §1

[15] = target: Gal(b1-4)GlcNAc(b1-2)[Gal(b1-4)GlcNAc(b1-4)]Man(a1-3)[GlcNAc(b1-4)][Gal(b1-4)GlcNAc(b1-2)Man(a1-6)]Man(b1-4)GlcNAc(b1-4)GlcNAc
Outline: as §1

[16] = target: Gal(b1-4)GlcNAc(b1-2)[Gal(b1-4)GlcNAc(b1-4)]Man(a1-3)[GlcNAc(b1-4)][Gal(b1-4)GlcNAc(b1-2)[Gal(b1-4)GlcNAc(b1-6)]Man(a1-6)]Man(b1-4)GlcNAc(b1-4)GlcNAc
Outline: as §1

[17] = target: Gal(b1-4)GlcNAc(b1-2)[Gal(b1-4)GlcNAc(b1-6)]Man(a1-6)[Gal(b1-4)GlcNAc(b1-2)Man(a1-3)]Man(b1-4)GlcNAc(b1-4)GlcNAc
Outline: as §1

[18] = target: Gal(b1-4)GlcNAc(b1-2)[Gal(b1-4)GlcNAc(b1-6)]Man(a1-6)[Gal(b1-4)GlcNAc(b1-2)Man(a1-3)]Man(b1-4)GlcNAc(b1-4)[Fuc(a1-6)]GlcNAc
Outline: as §1

[19] = target: Gal(b1-4)GlcNAc(b1-2)[Gal(b1-4)GlcNAc(b1-6)]Man(a1-6)[GlcNAc(b1-4)][Gal(b1-4)GlcNAc(b1-2)Man(a1-3)]Man(b1-4)GlcNAc(b1-4)GlcNAc
Outline: as §1

[20] = target: Gal(b1-4)GlcNAc(b1-2)[Gal(b1-4)GlcNAc(b1-6)]Man(a1-6)[GlcNAc(b1-4)][Gal(b1-4)GlcNAc(b1-2)[Gal(b1-4)GlcNAc(b1-4)]Man(a1-3)]Man(b1-4)GlcNAc(b1-4)[Fuc(a1-6)]GlcNAc
Outline: as §1

[21] = target: Gal(b1-4)GlcNAc(b1-3)Gal(b1-3)GalNAc
Outline: as §1

[22] = target: Gal(b1-4)GlcNAc(b1-3)Gal(b1-3)GlcNAc
Outline: as §1

[23] = target: Gal(b1-4)GlcNAc(b1-3)Gal(b1-4)Glc
Outline: as §1

[24] = target: Gal(b1-4)GlcNAc(b1-3)Gal(b1-4)GlcNAc
Outline: as §1

[25] = target: Gal(b1-4)GlcNAc(b1-3)Gal(b1-4)GlcNAc(b1-2)Man(a1-3)[Gal(b1-4)GlcNAc(b1-3)Gal(b1-4)GlcNAc(b1-2)Man(a1-6)]Man(b1-4)GlcNAc(b1-4)GlcNAc
Outline: as §1

[26] = target: Gal(b1-4)GlcNAc(b1-3)Gal(b1-4)GlcNAc(b1-2)Man(a1-3)[Gal(b1-4)GlcNAc(b1-3)Gal(b1-4)GlcNAc(b1-2)Man(a1-6)]Man(b1-4)GlcNAc(b1-4)[Fuc(a1-6)]GlcNAc
Outline: as §1

B1: SialidaseA (Arthrobacter ureafaciens) (protein)
chain: MRSNSTSAPSLVRRAATGVLTCAVSIGLLAGLGLPAQAAPTPPNSPTLPPGSFSETNLAADRTAANFFYRIPALTYLGNDVVLAAWDGRPGSAADAPNPNSIVQRRSTDGGKTWGPVQVIAAGHVADASGPRYGYSDPSYIYDAEANKVFAFFVYSKDQGFGGSQFGNDDADRNVISSAVIESSDAGVTWSQPRLITSVTKPGTSKTNPAAGDVRSNFASSGEGIQLKYGPHKGRLIQQYAGDVRQADGSNKIQAYSVYSDDHGVTWHKGANVGDRMDENKTVELSDGRVLLNSRDNANRGYRKVAVSTDGGATYGPVSQDTELPDPANNGAIARMFPNAAQGSADAKKLIFTNANSKTGRENVSARVSCDDGETWPGVRTIRSGFSAYSTVTRLADGKFGVLYEGNYTDNMPFATFDDAWLNYVCAPLAVPAVNIAPSATQEVPVTVTNQEATTLSGATATVYTPSGWSATTVPVPDVAPGASVTVTVALTAPADASGPRSLNAAFTTADGRVSQFTFTATTPVAPQVGLTITGSAPARDVAANPYQAGDVLGYTLNVKSTANVAANSVPLTGTFDSGFLPPAAPNCRYNNLAAGASYNCTTAKHTITAADMERGYFVPEATFSITSTTTPSLTKTVQFTGAAVALRDGLISADISGARTDVGRDLATRPYAAGELVPYAFTVKNTSPFVEQVVPTAGNFSPFLPAGAGNCRYLSLPAGQSYECATPRHAVTAEEVEQGFFVPDTTWEVSAAGQSTRTYRINGGEVDLLVRDAALSATVVAEWKDADGDRFASAGDPVTFTYTVGNAGNVALTGLEAPDAGISLPFLAPGDTATATREHVLTAADVAGGSLAASAFEATARNGSKEVTATAEGQPLELKVQPAQPSKEPELTVQDLEDQTPPFDLGTAFKYRTGQKVSLAGLEYGQWYYVYLNKTGYRLGWMFPTTGDTVEFILPPEVRNGRDDVVVLDKDGRRVSFDRLQVTPKGEKI
glycan array binding signal (z-score) (Gal(b1-4)Glc): -0.712
glycan array binding signal (z-score) (Gal(b1-4)Glc6S): -0.594
glycan array binding signal (z-score) (Gal(b1-4)GlcNAc): -0.624
glycan array binding signal (z-score) [1]: -0.669
glycan array binding signal (z-score) (Gal(b1-4)GlcNAc(b1-2)Man): -0.078
glycan array binding signal (z-score) [2]: -0.556
glycan array binding signal (z-score) [3]: -0.544
glycan array binding signal (z-score) [4]: -0.503
glycan array binding signal (z-score) [5]: -0.789
glycan array binding signal (z-score) [6]: -0.629
glycan array binding signal (z-score) [7]: -0.69
glycan array binding signal (z-score) [8]: -0.598
glycan array binding signal (z-score) [9]: -0.483
glycan array binding signal (z-score) [10]: -0.663
glycan array binding signal (z-score) [11]: -0.153
glycan array binding signal (z-score) [12]: -0.247
glycan array binding signal (z-score) [13]: -0.692
glycan array binding signal (z-score) [14]: -0.623
glycan array binding signal (z-score) [15]: -0.782
glycan array binding signal (z-score) [16]: -0.522
glycan array binding signal (z-score) [17]: -0.46
glycan array binding signal (z-score) [18]: 0.354
glycan array binding signal (z-score) [19]: -0.526
glycan array binding signal (z-score) [20]: -0.671
glycan array binding signal (z-score) [21]: -0.734
glycan array binding signal (z-score) [22]: -0.621
glycan array binding signal (z-score) [23]: -0.525
glycan array binding signal (z-score) [24]: -0.692
glycan array binding signal (z-score) [25]: 0.856
glycan array binding signal (z-score) [26]: 0.648
